Test results: a collection of fitness landscapes (doi:10.1016/j.celrep.2020.107928)
Whole data set: some 81,000 sequences, median “one-hybrid fitness for binding parS DNA” near -0.17, cut for the highest 2% near 0.51. This is one part of the list.

B1: Caulobacter ParB omega fusion; a variant is named by its letters at X, in order, B8GW30 (parent)
chain: MESVVVGEPGMSEGRRGLGRGLSALLGEVDAAPAQAPGEQLGGSREAPIEILQRNPDQPRRTFREEDLEDLSNSIREKGVLQPILVRPSPDTAGEYQIVAGERAWRAAQRAGLKTVPIMVRELDDLAVLEIGIIENVQRADLNVLEEALSYKVLMEKFERTQENIAQTIGKSXSHVANXMRLLXLPDEVQSYLVSGELTAXHARAIAAAADPVALAKQIIEGGLSVRETEALARKAPNLSAGKSKGGRPPRVKDTDTQALESDLSSVLGLDVSIDHRGSTGTLTITYATLEQLDDLCNRLTRGI

Variants of: B1
Assay: one-hybrid fitness for binding parS DNA (scaled: cognate 1, non-cognate 0); higher = stronger binding
Conditions: with parS DNA site
How it was run: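 Values were rescaled so that cognate is 1 and non-cognate is 0. Each is a fitness, the log change in a variant's read ratio to wild type from Illumina reads of plasmids before and after selection, with three replicate libraries pooled and variants under 10 reads dropped. Selection of the Caulobacter ParB libraries, four specificity codons randomised, used E. coli USO with a HIS3 reporter, site 19 bp from the promoter, on M9-minus-histidine with 0.1 mM IPTG and 5 mM 3-AT for 48 hours at 37°C.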

| Variant | one-hybrid fitness for binding parS DNA |
| --- | --- |
| RQTG | 1.01 |
| QFWR | ≤ 0.2 |
| LSWM | ≤ 0.2 |
| YVTI | ≤ 0.2 |
| SLCY | ≤ 0.2 |
| DTHD | ≤ 0.2 |
| QLQL | ≤ 0.2 |
| LAYL | ≤ 0.2 |
| LVSC | ≤ 0.2 |
| QTCL | ≤ 0.2 |
| KRCK | ≤ 0.2 |
| CTIS | ≤ 0.2 |
| LWAD | ≤ 0.2 |
| RDQR | ≤ 0.2 |
| ACCS | ≤ 0.2 |
| SVFR | ≤ 0.2 |
| RCCC | 0.959 |
| WRLR | ≤ 0.2 |
| VIGG | ≤ 0.2 |
| CGYG | ≤ 0.2 |
| TRRF | ≤ 0.2 |
| PMCW | ≤ 0.2 |
| HTTY | ≤ 0.2 |
| LCRA | ≤ 0.2 |

| Variant | one-hybrid fitness for binding parS DNA |
| --- | --- |
| LEMR | ≤ 0.2 |
| RGMM | ≤ 0.2 |
| WITA | ≤ 0.2 |
| CEDR | ≤ 0.2 |
| LRGC | ≤ 0.2 |
| RNME | ≤ 0.2 |
| NEPL | ≤ 0.2 |
| SNYR | ≤ 0.2 |
| DSSE | ≤ 0.2 |
| LRFR | ≤ 0.2 |
| QIKS | ≤ 0.2 |
| ENLL | ≤ 0.2 |
| GPNG | ≤ 0.2 |
| YASE | ≤ 0.2 |
| YSAS | ≤ 0.2 |
| VHKC | ≤ 0.2 |
| KLHW | ≤ 0.2 |
| PNLV | ≤ 0.2 |
| QGAN | ≤ 0.2 |
| CCAI | ≤ 0.2 |
| CVMR | ≤ 0.2 |
| PYPN | ≤ 0.2 |
| HKNL | ≤ 0.2 |
| IGFV | ≤ 0.2 |

| Variant | one-hybrid fitness for binding parS DNA |
| --- | --- |
| HPKY | ≤ 0.2 |
| QALV | ≤ 0.2 |
| VPWL | ≤ 0.2 |
| RYLD | 0.206 |
| NGTE | ≤ 0.2 |
| KHYT | ≤ 0.2 |
| TPSR | ≤ 0.2 |
| SNYH | ≤ 0.2 |
| QQKC | ≤ 0.2 |
| RMPD | ≤ 0.2 |
| SELR | ≤ 0.2 |
| QNEG | ≤ 0.2 |
| PRGK | ≤ 0.2 |
| HPTK | ≤ 0.2 |
| TNKY | ≤ 0.2 |
| LCQC | ≤ 0.2 |
| RKKM | 0.231 |
| TIGG | ≤ 0.2 |
| LDMV | ≤ 0.2 |
| MRPS | ≤ 0.2 |
| QLMN | ≤ 0.2 |
| FYRR | ≤ 0.2 |
| CRLA | ≤ 0.2 |
| HKYA | ≤ 0.2 |

| Variant | one-hybrid fitness for binding parS DNA |
| --- | --- |
| SEQM | ≤ 0.2 |
| RTES | 0.985 |
| IQSK | ≤ 0.2 |
| WKPQ | ≤ 0.2 |
| HNIC | ≤ 0.2 |
| SNGR | ≤ 0.2 |
| ISKY | ≤ 0.2 |
| VMFS | ≤ 0.2 |
| LPPK | ≤ 0.2 |
| IYYG | ≤ 0.2 |
| FPPF | ≤ 0.2 |
| WRMT | ≤ 0.2 |
| HQHG | ≤ 0.2 |
| SCKD | ≤ 0.2 |
| CFYL | ≤ 0.2 |
| GAHT | ≤ 0.2 |
| THYN | ≤ 0.2 |
| PRAR | ≤ 0.2 |
| YEFT | ≤ 0.2 |
| DNQR | ≤ 0.2 |
| LQGS | ≤ 0.2 |
| RQCW | 0.223 |
| YYCT | ≤ 0.2 |
| DYVI | ≤ 0.2 |

| Variant | one-hybrid fitness for binding parS DNA |
| --- | --- |
| AGRM | ≤ 0.2 |
| CFIG | ≤ 0.2 |
| DGII | ≤ 0.2 |
| LWNN | ≤ 0.2 |
| GPAM | ≤ 0.2 |
| HGKG | ≤ 0.2 |
| DVNR | ≤ 0.2 |
| PAGR | ≤ 0.2 |
| PGLW | ≤ 0.2 |
| QMKW | ≤ 0.2 |
| HAAR | ≤ 0.2 |
| KFSS | ≤ 0.2 |
| FKLT | ≤ 0.2 |
| YQVS | ≤ 0.2 |
| WWKG | ≤ 0.2 |
| PTFT | ≤ 0.2 |
| NYLS | ≤ 0.2 |
| HECG | ≤ 0.2 |
| SETS | ≤ 0.2 |
| PNGV | ≤ 0.2 |
| QYNY | ≤ 0.2 |
| PDRQ | ≤ 0.2 |
| PRYL | ≤ 0.2 |
| QDSV | ≤ 0.2 |

| Variant | one-hybrid fitness for binding parS DNA |
| --- | --- |
| SCPY | ≤ 0.2 |
| EQAG | ≤ 0.2 |
| SPGT | ≤ 0.2 |
| PAHY | ≤ 0.2 |
| MVHI | ≤ 0.2 |
| QWPY | ≤ 0.2 |
| RNAV | ≤ 0.2 |
| QTDR | ≤ 0.2 |
| HNLG | ≤ 0.2 |
| LLAV | ≤ 0.2 |
| RVRD | ≤ 0.2 |
| SREG | ≤ 0.2 |
| MCYS | ≤ 0.2 |
| QTWS | ≤ 0.2 |
| PDEC | ≤ 0.2 |
| RTQY | 0.474 |
| QLWP | ≤ 0.2 |
| TECG | ≤ 0.2 |
| RFKT | 0.902 |
| HAEA | ≤ 0.2 |
| QPNL | ≤ 0.2 |
| IRCR | ≤ 0.2 |
| PMVR | ≤ 0.2 |
| NGTT | ≤ 0.2 |

| Variant | one-hybrid fitness for binding parS DNA |
| --- | --- |
| IYEY | 0.341 |
| SYCG | ≤ 0.2 |
| IVVD | ≤ 0.2 |
| VFDS | ≤ 0.2 |
| QSRQ | ≤ 0.2 |
| RLIR | ≤ 0.2 |
| SHTQ | ≤ 0.2 |
| VAHG | ≤ 0.2 |
| GMGT | ≤ 0.2 |
| RANL | ≤ 0.2 |
| NQVR | ≤ 0.2 |
| QLDM | ≤ 0.2 |
| RMNY | 0.529 |
| EKSR | ≤ 0.2 |
| HKHC | ≤ 0.2 |
| VAEL | ≤ 0.2 |
| YDNS | ≤ 0.2 |
| SDRP | ≤ 0.2 |
| CAGK | ≤ 0.2 |
| ASPC | ≤ 0.2 |
| TNSD | ≤ 0.2 |
| GRMV | ≤ 0.2 |
| KIVG | ≤ 0.2 |
| VCRA | ≤ 0.2 |

| Variant | one-hybrid fitness for binding parS DNA |
| --- | --- |
| RWWE | ≤ 0.2 |
| TELM | ≤ 0.2 |
| RITM | 0.319 |
| QMTD | ≤ 0.2 |
| CEYS | ≤ 0.2 |
| NVQS | ≤ 0.2 |
| PFFA | ≤ 0.2 |
| TGAV | ≤ 0.2 |
| ESML | ≤ 0.2 |
| WHCR | ≤ 0.2 |
| SGTY | ≤ 0.2 |
| GHAH | ≤ 0.2 |
| VQNG | ≤ 0.2 |
| LAIS | ≤ 0.2 |
| RPTC | ≤ 0.2 |
| PLVR | ≤ 0.2 |
| TIHG | ≤ 0.2 |
| APVD | ≤ 0.2 |
| QLHT | ≤ 0.2 |
| TTIY | ≤ 0.2 |
| NKKR | ≤ 0.2 |
| AECI | ≤ 0.2 |
| VAFS | ≤ 0.2 |
| GTEC | ≤ 0.2 |

| Variant | one-hybrid fitness for binding parS DNA |
| --- | --- |
| NMGQ | ≤ 0.2 |
| PWNI | ≤ 0.2 |
| RSLA | 0.591 |
| HTGQ | ≤ 0.2 |
| ITRT | ≤ 0.2 |
| TTCL | ≤ 0.2 |
| WATL | ≤ 0.2 |
| VMST | ≤ 0.2 |
| ETPA | ≤ 0.2 |
| PVPF | ≤ 0.2 |
| VNET | ≤ 0.2 |
| QNNA | ≤ 0.2 |
| LNHT | ≤ 0.2 |
| SKNM | ≤ 0.2 |
| TFLY | 0.258 |
| RAEE | ≤ 0.2 |
| RNML | ≤ 0.2 |
| QCSY | ≤ 0.2 |
| PSWH | ≤ 0.2 |
| GVLL | ≤ 0.2 |
| CNHR | ≤ 0.2 |
| PQDF | ≤ 0.2 |
| SHPR | ≤ 0.2 |
| PEIT | ≤ 0.2 |

| Variant | one-hybrid fitness for binding parS DNA |
| --- | --- |
| GSMT | ≤ 0.2 |
| CAGL | ≤ 0.2 |
| IMTI | ≤ 0.2 |
| PFNR | ≤ 0.2 |
| TKVT | ≤ 0.2 |
| YFLI | ≤ 0.2 |
| MTTV | ≤ 0.2 |
| RRCI | ≤ 0.2 |
| AEFV | ≤ 0.2 |
| ATSG | ≤ 0.2 |
| HGFG | ≤ 0.2 |
| PHKS | ≤ 0.2 |
| DATR | ≤ 0.2 |
| ADAS | ≤ 0.2 |
| SGPV | ≤ 0.2 |
| QEVF | ≤ 0.2 |
| PKIK | ≤ 0.2 |
| LMLS | ≤ 0.2 |
| NSYC | ≤ 0.2 |
| DTGA | ≤ 0.2 |
| HKAN | ≤ 0.2 |
| VGPV | ≤ 0.2 |
| KRHF | ≤ 0.2 |
| QKSH | ≤ 0.2 |

| Variant | one-hybrid fitness for binding parS DNA |
| --- | --- |
| QHRG | ≤ 0.2 |
| LTSS | ≤ 0.2 |
| REGS | ≤ 0.2 |
| QAFY | ≤ 0.2 |
| SIPS | ≤ 0.2 |
| CMVS | ≤ 0.2 |
| ESSH | ≤ 0.2 |
| ATPV | ≤ 0.2 |
| QKSA | ≤ 0.2 |
| QCIN | ≤ 0.2 |
| DLDN | ≤ 0.2 |
| CRIF | ≤ 0.2 |
| HAHY | ≤ 0.2 |
| TSMT | ≤ 0.2 |
| VFRS | ≤ 0.2 |
| ASNK | ≤ 0.2 |
| KNRA | ≤ 0.2 |
| RMDV | ≤ 0.2 |
| PTQR | ≤ 0.2 |
| LTGG | ≤ 0.2 |
| DLLL | ≤ 0.2 |
| SGHG | ≤ 0.2 |
| QAVP | ≤ 0.2 |
| VNLP | ≤ 0.2 |

| Variant | one-hybrid fitness for binding parS DNA |
| --- | --- |
| FLKR | ≤ 0.2 |
| KACS | ≤ 0.2 |
| RCVA | 0.581 |
| QRHR | ≤ 0.2 |
| PAGS | ≤ 0.2 |
| WGFL | ≤ 0.2 |
| NFMA | ≤ 0.2 |
| LCTG | ≤ 0.2 |
| MMQY | ≤ 0.2 |
| ERNE | ≤ 0.2 |
| YVAF | ≤ 0.2 |
| KQVG | ≤ 0.2 |
| AGLG | ≤ 0.2 |
| IYPG | ≤ 0.2 |
| SWPD | ≤ 0.2 |
| EKNI | ≤ 0.2 |
| ESYW | ≤ 0.2 |
| YAYY | ≤ 0.2 |
| PVKT | ≤ 0.2 |
| SMWS | ≤ 0.2 |
| RKTH | ≤ 0.2 |
| IPVQ | ≤ 0.2 |
| QGLH | ≤ 0.2 |
| KWNG | ≤ 0.2 |

| Variant | one-hybrid fitness for binding parS DNA |
| --- | --- |
| SPPG | ≤ 0.2 |
| RAWE | ≤ 0.2 |
| VQRT | ≤ 0.2 |
| LMHS | ≤ 0.2 |
| YGSE | ≤ 0.2 |
| RWVY | ≤ 0.2 |
| HKSW | ≤ 0.2 |
| KECK | ≤ 0.2 |
| GILA | ≤ 0.2 |
| TMEV | ≤ 0.2 |
| KGQG | ≤ 0.2 |
| GLTM | ≤ 0.2 |
| IPQR | ≤ 0.2 |
| LTEA | ≤ 0.2 |
| NVPD | ≤ 0.2 |
| ESLS | ≤ 0.2 |
| TENQ | ≤ 0.2 |
| PTRY | ≤ 0.2 |
